# From the supplement of paper PMC8728848
# Some of the results follow.
# B1: WGA (Triticum vulgare) (protein)
# chain: QRCGEQGSNMECPNNLCCSQYGYCGMGGDYCGKGCQNGACWTSKRCGSQAGGATCPNNHCCSQYGHCGFGAEYCGAGCQGGPCRADIKCGSQSGGKLCPNNLCCSQWGFCGLGSEFCGGGCQSGACSTDKPCGKDAGGRVCTNNYCCSKWGSCGIGPGYCGAGCQSGGCDAVFAGAITANSTLLAE
# Key:
# Assay in all cases: glycan array binding signal (z-score within array); higher = stronger binding
# Conditions in all cases: glycan notation: IUPAC condensed, linker removed
# [1] = molecular target: GlcNAc(b1-2)[GlcNAc(b1-4)]Man(a1-3)[GlcNAc(b1-2)Man(a1-6)]Man(b1-4)GlcNAc(b1-4)GlcNAc
# Procedure, shortened: (§1)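 Glycan array data were curated from 3228 arrays in the Consortium for Functional Glycomics database and kept only where the protein sequence was available. Glycan names were converted to IUPAC-condensed notation, and columns mapping to the same glycan were averaged. The binding signal is a within-array Z-score, averaged across arrays of the same protein sequence at different concentrations or buffers and across linkers. Negative Z-scores can be read as non-binding.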
# [2] = molecular target: GlcNAc(b1-2)[GlcNAc(b1-4)]Man(a1-3)[GlcNAc(b1-4)][GlcNAc(b1-2)Man(a1-6)]Man(b1-4)GlcNAc(b1-4)GlcNAc
# Procedure, shortened: as §1
# [3] = molecular target: GlcNAc(b1-2)[GlcNAc(b1-4)]Man(a1-3)[GlcNAc(b1-4)][GlcNAc(b1-2)[GlcNAc(b1-6)]Man(a1-6)]Man(b1-4)GlcNAc(b1-4)GlcNAc
# Procedure, shortened: as §1
# [4] = molecular target: GlcNAc(b1-2)[GlcNAc(b1-4)]Man(a1-3)[GlcNAc(b1-4)][GlcNAc(b1-2)[GlcNAc(b1-6)]Man(a1-6)]Man(b1-4)GlcNAc(b1-4)[Fuc(a1-6)]GlcNAc
# Procedure, shortened: as §1
# [5] = molecular target: GlcNAc(b1-2)[GlcNAc(b1-6)]Man(a1-6)[GlcNAc(b1-2)Man(a1-3)]Man(b1-4)GlcNAc(b1-4)GlcNAc
# Procedure, shortened: as §1
# [6] = molecular target: GlcNAc(b1-2)[GlcNAc(b1-6)]Man(a1-6)[GlcNAc(b1-2)Man(a1-3)]Man(b1-4)GlcNAc(b1-4)[Fuc(a1-6)]GlcNAc
# Procedure, shortened: as §1
# [7] = molecular target: GlcNAc(b1-2)[GlcNAc(b1-6)]Man(a1-6)[GlcNAc(b1-4)][GlcNAc(b1-2)Man(a1-3)]Man(b1-4)GlcNAc(b1-4)GlcNAc
# Procedure, shortened: as §1
# [8] = molecular target: GlcNAc(b1-3)Fuc
# Procedure, shortened: as §1
# [9] = molecular target: GlcNAc(b1-3)Gal
# Procedure, shortened: as §1
# [10] = molecular target: GlcNAc(b1-3)Gal(b1-3)GalNAc
# Procedure, shortened: as §1
# [11] = molecular target: GlcNAc(b1-3)Gal(b1-4)Glc
# Procedure, shortened: as §1
# [12] = molecular target: GlcNAc(b1-3)Gal(b1-4)GlcNAc
# Procedure, shortened: as §1
# [13] = molecular target: GlcNAc(b1-3)Gal(b1-4)GlcNAc(b1-2)Man(a1-3)[GlcNAc(b1-3)Gal(b1-4)GlcNAc(b1-2)Man(a1-6)]Man(b1-4)GlcNAc(b1-4)GlcNAc
# Procedure, shortened: as §1
# [14] = molecular target: GlcNAc(b1-3)Gal(b1-4)GlcNAc(b1-2)Man(a1-3)[GlcNAc(b1-3)Gal(b1-4)GlcNAc(b1-2)Man(a1-6)]Man(b1-4)GlcNAc(b1-4)[Fuc(a1-6)]GlcNAc
# Procedure, shortened: as §1
# [15] = molecular target: GlcNAc(b1-3)Gal(b1-4)GlcNAc(b1-2)[GlcNAc(b1-3)Gal(b1-4)GlcNAc(b1-6)]Man(a1-6)[GlcNAc(b1-3)Gal(b1-4)GlcNAc(b1-2)Man(a1-3)]Man(b1-4)GlcNAc(b1-4)GlcNAc
# Procedure, shortened: as §1
# [16] = molecular target: GlcNAc(b1-3)Gal(b1-4)GlcNAc(b1-3)Gal(b1-4)GlcNAc
# Procedure, shortened: as §1
# [17] = molecular target: GlcNAc(b1-3)Gal(b1-4)GlcNAc(b1-3)Gal(b1-4)GlcNAc(b1-2)Man(a1-3)[GlcNAc(b1-3)Gal(b1-4)GlcNAc(b1-3)Gal(b1-4)GlcNAc(b1-2)Man(a1-6)]Man(b1-4)GlcNAc(b1-4)GlcNAc
# Procedure, shortened: as §1
# [18] = molecular target: GlcNAc(b1-3)Gal(b1-4)GlcNAc(b1-3)Gal(b1-4)GlcNAc(b1-2)Man(a1-3)[GlcNAc(b1-3)Gal(b1-4)GlcNAc(b1-3)Gal(b1-4)GlcNAc(b1-2)Man(a1-6)]Man(b1-4)GlcNAc(b1-4)[Fuc(a1-6)]GlcNAc
# Procedure, shortened: as §1
# [19] = molecular target: GlcNAc(b1-3)Gal(b1-4)GlcNAc(b1-3)Gal(b1-4)GlcNAc(b1-2)[GlcNAc(b1-3)Gal(b1-4)GlcNAc(b1-3)Gal(b1-4)GlcNAc(b1-6)]Man(a1-6)[GlcNAc(b1-3)Gal(b1-4)GlcNAc(b1-3)Gal(b1-4)GlcNAc(b1-2)Man(a1-3)]Man(b1-4)GlcNAc(b1-4)[Fuc(a1-6)]GlcNAc
# Procedure, shortened: as §1
# [20] = molecular target: GlcNAc(b1-3)Gal(b1-4)GlcNAc(b1-3)Gal(b1-4)GlcNAc(b1-3)Gal(b1-4)GlcNAc(b1-2)Man(a1-3)[GlcNAc(b1-3)Gal(b1-4)GlcNAc(b1-3)Gal(b1-4)GlcNAc(b1-3)Gal(b1-4)GlcNAc(b1-2)Man(a1-6)]Man(b1-4)GlcNAc(b1-4)GlcNAc
# Procedure, shortened: as §1
# [21] = molecular target: GlcNAc(b1-3)Gal(b1-4)GlcNAc(b1-3)Gal(b1-4)GlcNAc(b1-3)Gal(b1-4)GlcNAc(b1-2)Man(a1-3)[GlcNAc(b1-3)Gal(b1-4)GlcNAc(b1-3)Gal(b1-4)GlcNAc(b1-3)Gal(b1-4)GlcNAc(b1-2)Man(a1-6)]Man(b1-4)GlcNAc(b1-4)[Fuc(a1-6)]GlcNAc
# Procedure, shortened: as §1
# [22] = molecular target: GlcNAc(b1-3)Gal(b1-4)GlcNAc(b1-3)Gal(b1-4)GlcNAc(b1-3)Gal(b1-4)GlcNAc(b1-2)[GlcNAc(b1-3)Gal(b1-4)GlcNAc(b1-3)Gal(b1-4)GlcNAc(b1-3)Gal(b1-4)GlcNAc(b1-6)]Man(a1-6)[GlcNAc(b1-3)Gal(b1-4)GlcNAc(b1-3)Gal(b1-4)GlcNAc(b1-3)Gal(b1-4)GlcNAc(b1-2)Man(a1-3)]Man(b1-4)GlcNAc(b1-4)[Fuc(a1-6)]GlcNAc
# Procedure, shortened: as §1
# [23] = molecular target: GlcNAc(b1-3)Gal(b1-4)GlcNAc(b1-3)Gal(b1-4)GlcNAc(b1-3)Gal(b1-4)GlcNAc(b1-3)Gal(b1-4)GlcNAc(b1-2)Man(a1-3)[GlcNAc(b1-3)Gal(b1-4)GlcNAc(b1-3)Gal(b1-4)GlcNAc(b1-3)Gal(b1-4)GlcNAc(b1-3)Gal(b1-4)GlcNAc(b1-2)Man(a1-6)]Man(b1-4)GlcNAc(b1-4)GlcNAc
# Procedure, shortened: as §1
# [24] = molecular target: GlcNAc(b1-3)Gal(b1-4)GlcNAc(b1-3)Gal(b1-4)GlcNAc(b1-3)Gal(b1-4)GlcNAc(b1-3)Gal(b1-4)GlcNAc(b1-2)Man(a1-3)[GlcNAc(b1-3)Gal(b1-4)GlcNAc(b1-3)Gal(b1-4)GlcNAc(b1-3)Gal(b1-4)GlcNAc(b1-3)Gal(b1-4)GlcNAc(b1-2)Man(a1-6)]Man(b1-4)GlcNAc(b1-4)[Fuc(a1-6)]GlcNAc
# Procedure, shortened: as §1
# [25] = molecular target: GlcNAc(b1-3)Gal(b1-4)GlcNAc(b1-3)Gal(b1-4)GlcNAc(b1-3)Gal(b1-4)GlcNAc(b1-3)Gal(b1-4)GlcNAc(b1-2)[GlcNAc(b1-3)Gal(b1-4)GlcNAc(b1-3)Gal(b1-4)GlcNAc(b1-3)Gal(b1-4)GlcNAc(b1-3)Gal(b1-4)GlcNAc(b1-6)]Man(a1-6)[GlcNAc(b1-3)Gal(b1-4)GlcNAc(b1-3)Gal(b1-4)GlcNAc(b1-3)Gal(b1-4)GlcNAc(b1-3)Gal(b1-4)GlcNAc(b1-2)Man(a1-3)]Man(b1-4)GlcNAc(b1-4)[Fuc(a1-6)]GlcNAc
# Procedure, shortened: as §1
# [26] = molecular target: GlcNAc(b1-3)Gal(b1-4)GlcNAc(b1-3)Gal(b1-4)GlcNAc(b1-3)GalNAc
# Procedure, shortened: as §1
# [27] = molecular target: GlcNAc(b1-3)Gal(b1-4)GlcNAc(b1-3)GalNAc
# Procedure, shortened: as §1
# [28] = molecular target: GlcNAc(b1-3)Gal(b1-4)GlcNAc(b1-3)[GlcNAc(b1-3)Gal(b1-4)GlcNAc(b1-3)]GalNAc
# Procedure, shortened: as §1
# [29] = molecular target: GlcNAc(b1-3)Gal(b1-4)GlcNAc(b1-6)[Gal(b1-3)]GalNAc
# Procedure, shortened: as §1
# [30] = molecular target: GlcNAc(b1-3)Gal(b1-4)GlcNAc(b1-6)[GlcNAc(b1-3)Gal(b1-3)]GalNAc
# Procedure, shortened: as §1
# [31] = molecular target: GlcNAc(b1-3)Gal(b1-4)GlcNAc(b1-6)[GlcNAc(b1-3)]Gal(b1-4)GlcNAc
# Procedure, shortened: as §1
# [32] = molecular target: GlcNAc(b1-3)GalNAc
# Procedure, shortened: as §1
# [33] = molecular target: GlcNAc(b1-3)Man
# Procedure, shortened: as §1
# [34] = molecular target: GlcNAc(b1-3)[GlcNAc(b1-4)][GlcNAc(b1-6)]GlcNAc
# Procedure, shortened: as §1
# [35] = molecular target: GlcNAc(b1-3)[GlcNAc(b1-6)]Gal(b1-4)GlcNAc
# Procedure, shortened: as §1
# [36] = molecular target: GlcNAc(b1-3)[GlcNAc(b1-6)]GalNAc
# Procedure, shortened: as §1
# [37] = molecular target: GlcNAc(b1-3)[GlcNAc(b1-6)]GlcNAc(b1-4)GlcNAc
# Procedure, shortened: as §1
# [38] = molecular target: GlcNAc(b1-4)Gal(b1-4)GlcNAc
# Procedure, shortened: as §1
# [39] = molecular target: GlcNAc(b1-4)GlcNAc
# Procedure, shortened: as §1
# [40] = molecular target: GlcNAc(b1-4)GlcNAc(b1-4)GlcNAc
# Procedure, shortened: as §1
# [41] = molecular target: GlcNAc(b1-4)GlcNAc(b1-4)GlcNAc(b1-4)GlcNAc(b1-4)GlcNAc
# Procedure, shortened: as §1
# [42] = molecular target: GlcNAc(b1-4)GlcNAc(b1-4)GlcNAc(b1-4)GlcNAc(b1-4)GlcNAc(b1-4)GlcNAc
# Procedure, shortened: as §1
# [43] = molecular target: GlcNAc(b1-4)[GlcNAc(b1-6)]GalNAc
# Procedure, shortened: as §1
# [44] = molecular target: GlcNAc(b1-6)Gal(b1-4)GlcNAc
# Procedure, shortened: as §1
# [45] = molecular target: GlcNAc(b1-6)GalNAc
# Procedure, shortened: as §1
binder,measurement,setting,value
B1,glycan array binding signal (z-score),[1],-0.301
same,glycan array binding signal (z-score),[2],0.428
same,glycan array binding signal (z-score),[3],-0.086
same,glycan array binding signal (z-score),[4],-0.323
same,glycan array binding signal (z-score),[5],-0.176
same,glycan array binding signal (z-score),[6],-0.261
same,glycan array binding signal (z-score),[7],0.751
same,glycan array binding signal (z-score),[8],0.327
same,glycan array binding signal (z-score),[9],-0.316
same,glycan array binding signal (z-score),[10],-0.313
same,glycan array binding signal (z-score),[11],-0.11
same,glycan array binding signal (z-score),[12],1.25
same,glycan array binding signal (z-score),[13],1.29
same,glycan array binding signal (z-score),[14],1.15
same,glycan array binding signal (z-score),[15],1.43
same,glycan array binding signal (z-score),[16],1.71
same,glycan array binding signal (z-score),[17],1.24
same,glycan array binding signal (z-score),[18],1.49
same,glycan array binding signal (z-score),[19],2.17
same,glycan array binding signal (z-score),[20],2.28
same,glycan array binding signal (z-score),[21],1.6
same,glycan array binding signal (z-score),[22],2.47
same,glycan array binding signal (z-score),[23],2.29
same,glycan array binding signal (z-score),[24],1.81
same,glycan array binding signal (z-score),[25],2.45
same,glycan array binding signal (z-score),[26],-0.207
same,glycan array binding signal (z-score),[27],-0.359
same,glycan array binding signal (z-score),[28],-0.072
same,glycan array binding signal (z-score),[29],-0.267
same,glycan array binding signal (z-score),[30],-0.049
same,glycan array binding signal (z-score),[31],2.26
same,glycan array binding signal (z-score),[32],-0.343
same,glycan array binding signal (z-score),[33],-0.312
same,glycan array binding signal (z-score),[34],-0.342
same,glycan array binding signal (z-score),[35],1.64
same,glycan array binding signal (z-score),[36],0.053
same,glycan array binding signal (z-score),[37],0.452
same,glycan array binding signal (z-score),[38],-0.14
same,glycan array binding signal (z-score),[39],2.46
same,glycan array binding signal (z-score),[40],3.8
same,glycan array binding signal (z-score),[41],5.62
same,glycan array binding signal (z-score),[42],5.15
same,glycan array binding signal (z-score),[43],1.14
same,glycan array binding signal (z-score),[44],2.12
same,glycan array binding signal (z-score),[45],0.719
